Source: patent US20110105515A1, “TARGETING THE ONCOPROTEIN NUCLEOPHOSMIN” (President and Fellows of Harvard College, priority 2007, published 2011)
Where two headings read alike, the source gives them in different places.

Experiments:
[1] = test system: NCI-H322M; details: NCI-H322M (Non-Small Cell Lung Cancer), 48 hours, SRB; for CC50: read-out: LC50
[2] = test system: NCI-H322M; test: cells; details: Homo sapiens, 48 h; for CC50: read-out: LC50

In the case of CC1(C)C=Cc2c(ccc3c4c(n(O)c23)C(C)(C)C2CC35CCCN3C(=O)C2(NC5=O)C4SCC(NC(=O)CCC(N)C(=O)O)C(=O)NCC(=O)O)O1 (stereo not drawn) [Glutathione Adduct], the GI50 [1] is reported as 1.38 µM, the TGI [1] is reported as 4.63 µM and the CC50 [1] is reported as 16.1 µM.

[2H]On1c2c(c3ccc4c(c31)C=CC(C)(C)O4)C(OC([2H])([2H])[2H])[C@@]13NC(=O)C4(CCCN4C1=O)CC3C2(C)C (stereo partly drawn) [Deuterated Methanol Adduct] showed a TGI [1] of 2.54 µM, a GI50 [2] of 1.22 µM and a CC50 [2] of 5.31 µM.

For CN(C)c1cccc2c(S(=O)(=O)NCCCCCCCCCCOc3ccc4c(c3)[N+]([O-])=C3C4=C[C@@]45NC(=O)C6(CCCN6C4=O)CC5C3(C)C)cccc12 (stereo partly drawn) [Dansyl Analogue], the GI50 [1] was 1.48 µM, the TGI [1] was 3.58 µM and the CC50 [1] was 8.67 µM.

Cc1cc(C)cc(-c2ccc3c(c2)[N+]([O-])=C2C3=C[C@@]34NC(=O)C5(CCCN5C3=O)CC4C2(C)C)c1 (stereo partly drawn) [Biphenyl Analogue] showed a TGI [1] of 1.28 µM, a GI50 [2] of 0.278 µM and a CC50 [2] of 3.79 µM.
